# According to the RNAGym collection of RNA variant scans (doi:10.7554/elife.90254):
# Read counts are not given, so values of variants with three or more changes are uncertain.
# B1: OR4K15 (parent)
# chain: GUUAACGGUCAUAGGCCAUGGAAACUAGGAGCACCAUUUCGCUGCCAGUGAAGAAAUGAACAAAGAAAAUCUGGGCCAGGCAGGCAUCAAAAGAAAUAGUCUUGCGCUCAACCAGAAAGUCUGUAAUCAUUUUAAGGGUA
# Variants of: B1
# Assay: self-cleavage, relative activity (ratio to wild type); higher = more cleavage; in vitro, sequencing; the parent is a self-cleaving ribozyme
row,Variant,self-cleavage
1,A11C U43C U100A,0.5
2,A11C A69G C76G,0.18
3,A11U A51G U120C,0.91
4,C10A U49C U102A,0.82
5,C10U U39A A67G,1.02
6,A11G A56G U100A A116G A126G,0.11
7,A11G U70C C88U,0.24
8,A11G U120C U132C,0.6
9,A11G U43A A55G U122C C128A,1.64
10,A11G A23G U57C A62U U127C,0.75
11,A11G A62G U72A C85A A111G U120C,0.03
12,A11G A24G A59G C101U,0.48
13,A11G A18G A98U,1.01
14,A11G A47U U49G U72C A116G A135G,0.06
15,A11G A82U A140U,0.12
16,A11G A60G A94G U108C,0
17,A11G A30G A69G U100C,1.13
18,A11G U38C A91G,1.09
19,A11U A86U A91G,1.49
20,A11G A54G A67G,1.55
21,A11G U37C A92G U120C U130C,0.3

row,Variant,self-cleavage
1,A11G U39C U57C U120C,0.82
2,C10U G14A A110G A117G,0.28
3,A11G G20U U120C,0.63
4,U9G U37A U49C U131C U139C,0.29
5,C10U A23G A68G C121A,1.95
6,A11G A64G A95G,1.11
7,A11G A33C A118G U122C,0.69
8,A11U A22G A125U,1.74
9,A11U A24G U49C A95C,1.05
10,U9G A62G U131C,1.06
11,A11G U70C A111U,0.09
12,A11G C32U A51G A118G,0.93
13,A11G A78C U131C,0.27
14,U12A A24G U103C,0.87
15,A11G U19C U43A,1.47
16,A11G U49A A90G U103C,0.61
17,A11U A111G A126G U127C A140G,0.01
18,A11G U19C A47G U72A A116G,0.21
19,A11U A36G U38A A66G C85G,0.44
20,A11G A60G A68G,0.88
21,A11G A51G A82G A90G C121A,0.29

row,Variant,self-cleavage
1,A11G C76U A86G,0.1
2,U9C U122C U127A,1.99
3,A11G C109U A111G,0.02
4,A11G G14A A67G A94G A117G,0.68
5,A11G A22G A60G,0.72
6,A11G U57A U100C,1.97
7,A11G U19A A33U A51G A118G,1.09
8,A11G A33G A52G A56G U108C A114G G136A,0.03
9,A11G C46U U87C A94G U124A A125U,2
10,U9G U100A A114G,0.16
11,A11G U43C U97C A135G,1.1
12,A11G A54G A64G U100C U103A G104A,0.03
13,A11G A47G A59G A117G A140G,0.98
14,A11G A33G A91U,1.97
15,A11G G84A A90U,1.74
16,A11U U103C A114G,0.12
17,A11U A56G A110C A126G,0.1
18,C10U U103C A111G U139C,0.01
19,U9G U43C A59G U72C,0.15
20,A11G C46U A64G A117G,1.57
21,U9G A23G G41A A51G A54G A94G,0.79

row,Variant,self-cleavage
1,U9C U72A U100C G106A,0.02
2,A11G A47U A114G A129U,0.07
3,A11U U39A U108A,0.03
4,A11G A18G A67G,1.37
5,A11U G41A A89G,1.27
6,U9G G84A A110G A129G,0.09
7,A11G A23U U38C A51G A52G U100C,0
8,A11G A22U A69U,0.89
9,U12A A22G A63G A64G U100C U102C,1.38
10,A11G U37C A94U G106A U132C,0.04
11,A11G A30G U57C A126U,0.94
12,A11G U19C A23G A33G A52U,0.73
13,A11U A36G A51G A94G U102C,0.72
14,U12A A23G A51C A82G,0.66
15,C10A C16U A18C A51U U57C A96G,1.24
16,A11G U39C A116G,0.17
17,A11G C71U A110C,0.11
18,A11G U38C A86C,0.57
19,A11G U49A A52G U72A,0.15
20,A11G A23G U87A C105U,0.14
